Reference: PubChem BioAssay AID588579 (National Center for Advancing Translational Sciences (NCATS), 2011)
Among all 400,000 compounds or so, about 2,200 (0.55%) were called active. Inconclusive means that the source gave no clear call. Such entries were picked first, then a sample of the others. Calls come from the whole dose curve; as a rule, active = well fitted inhibition curve with a large enough effect; inconclusive = small, poorly fitted or top-dose-only effect, or another doubt; inactive = no such curve, though single readings can be large or run the other way. Potencies beside an inconclusive call are fits to weak or partial responses and may not hold up.

Target: DNA polymerase kappa (Homo sapiens) (UniProt Q9UBT6)
Assay: qHTS for Inhibitors of Polymerase Kappa
Conditions: purified Pol kappa, fluorescent DNA synthesis assay, 10 min; series mostly up to 107 µM; activity, negative = inhibition: at the top concentration
How it was run: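 Fluorescent qHTS in 1536-well format: enzyme (10 nM) and compound sat 15 min at room temperature before 50 nM substrate (final) was added. Signal taken at 0 and 10 min; no-enzyme buffer wells were negative controls.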
% is set by controls: 0 for no effect and ±100 for the full control effect; potency is the fitted concentration of half-maximal effect; tags give direction and shape of the fitted curve.

Chain of UniProt Q9UBT6 (Q9UBT6 whole entry, looked up): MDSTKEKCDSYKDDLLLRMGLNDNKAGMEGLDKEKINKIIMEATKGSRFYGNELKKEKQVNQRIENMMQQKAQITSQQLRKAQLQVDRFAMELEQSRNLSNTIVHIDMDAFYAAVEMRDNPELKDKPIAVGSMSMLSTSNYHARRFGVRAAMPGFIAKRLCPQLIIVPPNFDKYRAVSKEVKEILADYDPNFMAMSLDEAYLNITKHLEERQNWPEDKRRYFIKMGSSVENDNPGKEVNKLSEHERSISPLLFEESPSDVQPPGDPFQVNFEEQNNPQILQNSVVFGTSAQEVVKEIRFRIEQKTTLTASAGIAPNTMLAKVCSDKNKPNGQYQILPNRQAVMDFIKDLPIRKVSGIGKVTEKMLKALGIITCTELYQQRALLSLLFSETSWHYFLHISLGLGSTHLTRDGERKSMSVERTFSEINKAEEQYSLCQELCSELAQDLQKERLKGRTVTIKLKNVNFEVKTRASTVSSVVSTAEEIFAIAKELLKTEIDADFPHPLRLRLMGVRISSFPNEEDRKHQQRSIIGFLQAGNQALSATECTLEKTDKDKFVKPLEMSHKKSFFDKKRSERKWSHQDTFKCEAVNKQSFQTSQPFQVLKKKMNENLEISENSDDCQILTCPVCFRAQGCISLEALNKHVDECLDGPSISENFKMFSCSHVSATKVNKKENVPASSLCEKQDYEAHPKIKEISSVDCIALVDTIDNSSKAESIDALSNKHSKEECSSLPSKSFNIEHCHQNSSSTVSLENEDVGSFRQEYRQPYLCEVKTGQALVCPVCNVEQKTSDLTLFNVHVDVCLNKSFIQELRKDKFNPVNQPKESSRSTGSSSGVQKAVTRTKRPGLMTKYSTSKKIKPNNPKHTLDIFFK

Potency, active:
COc1ccc(-n2c(C)cc(/C=C/c3nc(O)c([N+](=O)[O-])c(=O)[nH]3)c2C)cc1 50.1 µM
O=C(Nc1ccccc1)c1ccc2nc(-c3ccco3)c(-c3ccco3)nc2c1 44.7 µM
O=C(O)c1ccc(-n2cccc2/C=N\NC(=O)c2cc3cc(Br)ccc3o2)cc1 14.1 µM
COc1ccccc1C(=O)NCC(=O)N/N=C/c1cc(Br)ccc1OC(=O)/C=C\c1ccco1 31.6 µM
Cc1ccc(C)n1C(CC(=O)O)c1ccc(C#N)cc1 (stereo not given) 79.4 µM
Cc1ccc(/C=c2\sc3nc(-c4ccco4)nn3c2=O)o1 28.2 µM
CCOc1ccc(/C=C/c2ccc3ccccc3[n+]2C)cc1OCC 44.7 µM
COc1cc(-c2noc(C)c2/C=C/c2ccc(C(=O)O)cc2)cc(OC)c1OC 70.8 µM
O=c1cc(-c2ccc(O)c(-c3c(O)cc(O)c4c(=O)cc(-c5ccc(O)cc5)oc34)c2)oc2cc(O)cc(O)c12 79.4 µM
Cc1ccc(N2C(=O)c3ccccc3C2C(=O)c2ccc(O)cc2O)cc1 (stereo not given) 11.2 µM
O=C(c1cccc(-n2cccc2)c1)N1CCN(S(=O)(=O)c2ccccc2)CC1 17.8 µM
CCOc1ccccc1-c1c2cc(O)c(=O)cc-2oc2cc(O)c(O)cc12 14.1 µM
O=C(O)c1ccc2c3c(cccc13)C(=O)N(c1ccccc1)C2=O 89.1 µM

Potency, inconclusive:
Cc1cc(N2CCCC2)ccc1/C=C1\NC(=S)N(C)C1=O 79.4 µM [inhibitor, partial curve]
OC1(c2ccc(Cl)c(C(F)(F)F)c2)CCN(CCCC(c2ccc(F)cc2)c2ccc(F)cc2)CC1 23.8 µM [inhibitor, partial curve]
CN(C)c1ccc(C=c2c3cc(O)ccc3n3c2cc(-c2ccccc2)[n+]3C)cc1 44.7 µM [inhibitor, partial curve, poor fit]
O=c1c(C(c2ccc(O)cc2)c2c(O)nc3n(c2=O)CCCS3)c(O)nc2n1CCCS2 89.1 µM [inhibitor, single point]
CCOC(=O)C1=C(c2ccccc2)N=c2s/c(=C\c3ccco3)c(=O)n2C1c1cccs1 (stereo not given) 31.6 µM [inhibitor, full curve, poor fit]
O=C(O)CCCCCN1C(=O)/C(=C\c2cn(-c3ccccc3)nc2-c2cccs2)SC1=S 89.1 µM [inhibitor, single point]
Cc1csc(SC(C)C(=O)NC2CCCCC2C)n1 (stereo not given) 39.8 µM [inhibitor, single point]
Cc1c(NC(=O)c2ccc3nsnc3c2)cccc1[N+](=O)[O-] 89.1 µM [inhibitor, single point]
O=c1/c(=C\c2cc([N+](=O)[O-])cc([N+](=O)[O-])c2O)sc2nc3ccccc3n12 100 µM [inhibitor, single point]
Cn1c(C(=O)OCC(=O)NCc2ccco2)cc2sccc21 70.8 µM [inhibitor, single point]
CN(C)c1ccc(-c2ccc(C3C4C=CCCC4(C)C(=O)N3Cc3ccccc3)c(F)c2)cc1 (stereo not given) 89.1 µM [inhibitor, single point]
Cc1ccc(-n2ccc(=O)c(C(=O)Nc3ccc(S(=O)(=O)Nc4onc(C)c4C)cc3)n2)cc1 89.1 µM [inhibitor, partial curve, poor fit]
N#Cc1ccccc1S(=O)(=O)N1CCN(C(=O)c2cc3c(s2)CCC3)CC1 89.1 µM [inhibitor, single point]
COc1cccc(C(=O)NCc2ccc3c(c2)cc(C)n3C)c1 89.1 µM [inhibitor, partial curve, poor fit]
O=c1cc(-c2cccc(-c3ccc(C(F)(F)F)cc3)c2)c2cc3c(cc2o1)OCO3 31.6 µM [inhibitor, partial curve, poor fit]
N#Cc1cccc(-c2nc3cnc(Nc4ccccc4)nc3n(C[C@H]3CCCO3)c2=O)c1 20 µM [inhibitor, single point]
Cc1ccc2nc(/C(C#N)=C/c3ccc(-c4ccccc4C(=O)O)o3)[nH]c2c1 79.4 µM [inhibitor, partial curve]
O=C(Nc1sc2c(c1C(=O)NCc1ccco1)CCCC2)c1cc(=O)c2ccccc2o1 89.1 µM [inhibitor, single point]
COc1ccccc1CNC(=O)c1cc(S(=O)(=O)N2CCN(c3ccccc3)CC2)ccc1Cl 112 µM [inhibitor, partial curve, poor fit]
Nc1ccc2c(c1)-c1ccccc1S(=O)(=O)N2 56.2 µM [inhibitor, partial curve, poor fit]
Cc1nc2scc(C)n2c(=O)c1S(=O)(=O)Nc1ccc(N2CCOCC2)c(Cl)c1 100 µM [inhibitor, single point]
CCOC(=O)N/N=C(C)/C=C/c1ccccc1 100 µM [inhibitor, single point]
Cc1nc2cc(-c3ccsc3-n3c(C)ccc3C)[nH]n2c(=O)c1Cl 35.5 µM [inhibitor, full curve, poor fit]
O=C(NNc1cc(Br)c(O)c(Br)c1)c1ccccc1 89.1 µM [inhibitor, single point]
CC(/C=N/NC(=O)Cc1cccn1C)=C\c1ccco1 89.1 µM [inhibitor, single point]
O=C(O)c1ccc(S(=O)(=O)/N=C2\C=C(Nc3ccccc3F)C(=O)c3ccccc32)cc1 89.1 µM [inhibitor, partial curve, poor fit]
O=C1c2c(O)cc(O)cc2O[C@@]12c1c(cc(O)c3c1O[C@H](c1ccc(O)cc1)[C@@H](O)C3)O[C@@H]2c1ccc(O)cc1 79.4 µM [inhibitor, partial curve, poor fit]
COC(=O)C1=C(C)N(c2cc(C)cc(C)c2)/C(=C/c2ccco2)C1=O 89.1 µM [inhibitor, single point]
S=c1[nH]nc(-c2cc(-c3ccccc3)n[nH]2)n1/N=C/c1c2ccccc2cc2ccccc12 89.1 µM [inhibitor, single point]
CC(=O)Oc1cccc(/C=c2\sc3nc(-c4ccco4)nn3c2=O)c1 50.1 µM [inhibitor, partial curve, poor fit]
Cc1cc(-c2csc(NC(=O)c3ccc(C#N)cc3)n2)c(C)n1Cc1ccco1 89.1 µM [inhibitor, single point]
CC1=Nc2cc(C(=O)O)ccc2Sc2ccc(Br)cc21 100 µM [inhibitor, partial curve, poor fit]
COc1ccc(C(=O)NCC(=O)OCC(=O)Nc2sccc2C#N)cc1OC 79.4 µM [inhibitor, partial curve, poor fit]
Oc1c(CN2CCOCC2)cc(CN2CCOCC2)c(O)c1O 100 µM [inhibitor, single point]
COc1ccc2[nH]c(C(=O)N/N=C/c3ccc(O)cc3O)cc2c1 56.2 µM [inhibitor, partial curve, poor fit]
O=c1cc(O)c2sc3nc(-c4cccnc4)cc(C(F)(F)F)c3c2[nH]1 89.1 µM [inhibitor, single point]
CC(=O)Nc1nc(SCC(=O)NCc2ccc(F)cc2)[nH]c(=O)c1NC(=O)c1cccs1 89.1 µM [inhibitor, partial curve, poor fit]
Oc1c(Br)cc(Br)cc1C=NCc1ccc(F)cc1 89.1 µM [inhibitor, single point]
CSc1ccc(C2c3c(-c4ccccc4O)n[nH]c3C(=O)N2Cc2ccncc2)cc1 (stereo not given) 89.1 µM [inhibitor, single point]
Cc1c(C(=O)OCc2ccccc2)[nH]c2c1C(=O)CC(c1ccco1)C2 (stereo not given) 56.2 µM [inhibitor, partial curve, poor fit]

activity, negative = inhibition, inactive:
CCc1ccc(NC(=O)CSC2=Nc3ccccc3C3=NC(CCC(=O)NCc4ccccc4OC)C(=O)N23)cc1 (stereo not given) -0.331% [at 60.1 µM]
COc1ccc(CNC(=O)c2cc3ccccn3n2)c(OC)c1 28.9%
Cc1ccc2nc(Cl)c(C3CC(c4cccs4)=NN3C(=O)CCCC(=O)O)cc2c1 (stereo not given) -0.243%
Cc1oc(C)c2c(=O)ccc3c(c12)OC(N)=C(C#N)C3c1ccccc1 (stereo not given) -26.5%
Cc1ccccc1CNC(=O)C(=O)NCC(c1ccco1)S(=O)(=O)c1ccc(F)cc1 (stereo not given) -13% [at 60.1 µM]
CCc1ccc(CNCCNC(=O)c2ccco2)cc1 0.558%
CN(Cc1ccccc1)C(=O)Nc1ccc2c(c1)N(C)C(=O)c1ccccc1S2 3.62%
O=C(NNS(=O)(=O)c1ccc(Br)cc1)c1csnn1 -14.3%
CC(C)(C)c1ccc(NC(=O)COC(=O)c2ccccc2OCC(=O)Nc2ccc(Br)cc2)cc1 -9%
CCN(CC)C(=O)c1c(-c2ccccc2)c(-c2ccccc2)nn(C)c1=O 2.27%
Clc1ccccc1-c1ncc2ccccn12 -7.37%
O=C(Nc1ccccc1)N1CCCC2(CCN(C(=O)c3cc(C(F)(F)F)cc(C(F)(F)F)c3)CC2)C1 -2.26% [at 60.1 µM]
